{"source": "paper PMC4336329", "about": "(PLoS ONE, 2015)", "note": "Screen size: about 310,000 compounds; about 2,200 (0.71%) showed an effect of 50% or more. Effects have a minus sign here. This is one part of the list."}
{"biological_target": "human ether-à-go-go-related gene (hERG) potassium channel (human, UniProt Q12809)", "sequence (Q12809 whole entry, looked up)": "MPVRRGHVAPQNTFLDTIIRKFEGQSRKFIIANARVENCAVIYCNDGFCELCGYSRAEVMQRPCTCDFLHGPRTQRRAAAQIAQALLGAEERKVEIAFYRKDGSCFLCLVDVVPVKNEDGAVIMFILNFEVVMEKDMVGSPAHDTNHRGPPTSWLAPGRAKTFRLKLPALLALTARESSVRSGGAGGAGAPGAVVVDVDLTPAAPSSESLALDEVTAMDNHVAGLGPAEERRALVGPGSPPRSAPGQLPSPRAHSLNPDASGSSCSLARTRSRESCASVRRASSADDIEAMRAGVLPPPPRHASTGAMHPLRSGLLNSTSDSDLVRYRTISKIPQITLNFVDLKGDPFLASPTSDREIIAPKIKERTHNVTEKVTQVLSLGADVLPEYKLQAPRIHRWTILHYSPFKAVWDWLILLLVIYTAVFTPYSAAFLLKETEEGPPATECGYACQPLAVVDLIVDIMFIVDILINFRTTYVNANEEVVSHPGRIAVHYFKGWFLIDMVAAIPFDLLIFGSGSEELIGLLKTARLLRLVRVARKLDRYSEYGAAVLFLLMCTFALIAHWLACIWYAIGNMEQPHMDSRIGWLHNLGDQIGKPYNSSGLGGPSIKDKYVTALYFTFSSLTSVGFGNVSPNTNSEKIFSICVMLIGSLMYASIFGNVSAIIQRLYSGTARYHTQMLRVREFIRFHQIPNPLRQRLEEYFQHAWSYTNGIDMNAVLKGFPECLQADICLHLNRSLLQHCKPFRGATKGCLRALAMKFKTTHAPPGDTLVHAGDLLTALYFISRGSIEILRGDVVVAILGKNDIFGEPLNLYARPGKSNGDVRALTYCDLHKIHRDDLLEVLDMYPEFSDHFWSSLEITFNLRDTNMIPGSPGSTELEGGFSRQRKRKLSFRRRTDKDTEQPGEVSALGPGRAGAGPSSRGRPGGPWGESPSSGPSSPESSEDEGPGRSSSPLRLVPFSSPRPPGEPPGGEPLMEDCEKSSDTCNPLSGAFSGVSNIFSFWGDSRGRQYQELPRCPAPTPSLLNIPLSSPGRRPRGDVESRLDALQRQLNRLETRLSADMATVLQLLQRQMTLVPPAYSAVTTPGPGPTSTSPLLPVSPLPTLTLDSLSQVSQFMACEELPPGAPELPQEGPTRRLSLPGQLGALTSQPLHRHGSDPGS", "experiment": "primary screen, population patch clamp on CHO cells stably expressing hERG", "units": {"hERG current change (%, negative = inhibition) at 1uM": "%"}}
{"molecule": "COCC(C)NC(=O)c1ccccc1[N+](=O)[O-]", "note": "(centres unmarked)", "hERG current change (%, negative = inhibition) at 1uM": 16.5}
{"molecule": "CCOC(=O)c1ccc(S(=O)(=O)NNS(=O)(=O)c2ccc(C)cc2)cc1", "hERG current change (%, negative = inhibition) at 1uM": 15.1}
{"molecule": "CC(=O)Nc1ccc(-c2cc(NC(C)=O)n(-c3ccccc3)n2)cc1", "hERG current change (%, negative = inhibition) at 1uM": 12.1}
{"molecule": "COc1ccc(NC(=O)c2ccccc2O)c(OC)c1", "hERG current change (%, negative = inhibition) at 1uM": -1.74}
{"molecule": "CCN(CC)C(=O)Oc1ccc2c(=O)c(-c3ccc(OC)cc3)coc2c1", "hERG current change (%, negative = inhibition) at 1uM": 14.4}
{"molecule": "CC(=O)Nc1ccc(OC(=O)N(C)c2ccccc2)cc1", "hERG current change (%, negative = inhibition) at 1uM": 7.93}
{"molecule": "COCCN(CCOC)Cc1c(O)ccc2c1O/C(=C\\c1ccco1)C2=O", "hERG current change (%, negative = inhibition) at 1uM": 19.1}
{"molecule": "CCCNC(=S)Nc1ccc(Nc2ccccc2)cc1", "hERG current change (%, negative = inhibition) at 1uM": -1.84}
{"molecule": "CCOC(=O)N1CCN(c2c(NCCCN(CC)Cc3ccccc3)c(=O)c2=O)CC1", "hERG current change (%, negative = inhibition) at 1uM": 11.2}
{"molecule": "CCc1cc2ccccc2nc1SCC(=O)Nc1cc(OC)c(OC)cc1C(=O)O", "hERG current change (%, negative = inhibition) at 1uM": 3.77}
{"molecule": "CCC(OC(=O)c1nsc(Cl)c1Cl)C(=O)NC(C)(C)CC", "note": "(centres unmarked)", "hERG current change (%, negative = inhibition) at 1uM": 9.53}
{"molecule": "Cc1cc(C)c(C)c(S(=O)(=O)Nc2ccc(O)cc2)c1C", "hERG current change (%, negative = inhibition) at 1uM": 0.777}
{"molecule": "Cc1ccc(N=Cc2c(O)n(C)c(=O)n(C)c2=O)cc1", "hERG current change (%, negative = inhibition) at 1uM": 13.2}
{"molecule": "COc1ccc(F)cc1S(=O)(=O)N1CC(C)CC(C)C1", "note": "(centres unmarked)", "hERG current change (%, negative = inhibition) at 1uM": 1.67}
{"molecule": "Cc1ccc(C)c(N2CCN(C(=O)c3cc(S(=O)(=O)N4CCOCC4)cn3C)CC2)c1", "hERG current change (%, negative = inhibition) at 1uM": 4.01}
{"molecule": "O=C(O)COc1ccc(C(=O)c2ccccc2)cc1", "hERG current change (%, negative = inhibition) at 1uM": 15.8}
{"molecule": "CC(C)c1cccc(C(C)C)c1OCCCCCN1CCOCC1", "hERG current change (%, negative = inhibition) at 1uM": -2.25}
{"molecule": "O=C(CN1CCN(CN2C(=O)NC3(CCCCCC3)C2=O)CC1)Nc1cccc(F)c1", "hERG current change (%, negative = inhibition) at 1uM": 11.6}
{"molecule": "C=CCn1c(=O)c2ccccc2n2c(SCC(C)=O)nnc12", "hERG current change (%, negative = inhibition) at 1uM": 7.68}
{"molecule": "COc1cc(NC(=O)C(=O)NCCN2CCNCC2)c(OC)cc1Cl", "hERG current change (%, negative = inhibition) at 1uM": 12.1}
{"molecule": "COc1nnc(-c2ccc(C)c(S(=O)(=O)NCCO)c2)c2ccccc12", "hERG current change (%, negative = inhibition) at 1uM": -0.94}
{"molecule": "CCN(CC)S(=O)(=O)c1cccc(NC(=O)COC(=O)C2COc3ccccc3O2)c1", "note": "(centres unmarked)", "hERG current change (%, negative = inhibition) at 1uM": 6.43}
{"molecule": "COc1ccc2c(C)c(CCC(=O)N3C[C@H]4C[C@@H](C3)c3cccc(=O)n3C4)c(=O)oc2c1", "hERG current change (%, negative = inhibition) at 1uM": -11.8}
{"molecule": "O=C(NC(=O)N1CCCCCC1)c1ccc(Cl)cc1", "hERG current change (%, negative = inhibition) at 1uM": 0.837}
{"molecule": "CCOc1ccc(C2C(C#N)=C(N)SC(N)=C2C#N)cc1OCC", "hERG current change (%, negative = inhibition) at 1uM": 13.3}
{"molecule": "CCn1c(O)c(C2=NCCCC2)c2ccccc21", "hERG current change (%, negative = inhibition) at 1uM": -0.203}
{"molecule": "COc1ccc(OC)c2c1sc(=NC(=O)C1COc3ccccc3O1)n2C", "note": "(centres unmarked)", "hERG current change (%, negative = inhibition) at 1uM": 9.4}
{"molecule": "CCOC(=O)C1=C(N)Oc2cc(O)ccc2C1c1ccc([N+](=O)[O-])cc1", "note": "(centres unmarked)", "hERG current change (%, negative = inhibition) at 1uM": -13.7}
{"molecule": "CCn1cc(C(=O)Nc2cccc(C(=O)OC)c2)c(=O)c2ccc(C)nc21", "hERG current change (%, negative = inhibition) at 1uM": 3.57}
{"molecule": "COc1ccc(OCC(=O)NNC(=O)c2cccnc2)cc1", "hERG current change (%, negative = inhibition) at 1uM": 16.9}
{"molecule": "COCCN(C(=O)CSc1nnc2cc(C)c3ccccc3n12)c1c(N)n(Cc2ccccc2)c(=O)[nH]c1=O", "hERG current change (%, negative = inhibition) at 1uM": 13.4}
{"molecule": "Cc1cc(OC(C)C)nc(-c2ccccc2O)n1", "hERG current change (%, negative = inhibition) at 1uM": 6.11}
{"molecule": "O=C(Nc1ccc(S(=O)(=O)N2CCCCC2)cc1)C1CC(=O)N(c2ccccc2)C1", "note": "(centres unmarked)", "hERG current change (%, negative = inhibition) at 1uM": 12.4}
{"molecule": "O=C(NCCc1c[nH]c2ccccc12)C(=O)NCC(c1ccco1)N1CCN(c2ccccc2)CC1", "note": "(centres unmarked)", "hERG current change (%, negative = inhibition) at 1uM": 1.16}
{"molecule": "CCOc1ccc(C(=O)OCC(=O)N2CCCC2)cc1", "hERG current change (%, negative = inhibition) at 1uM": 22.8}
{"molecule": "S=c1[nH]c(-c2ccccc2)cn1/N=C/c1ccccc1Br", "hERG current change (%, negative = inhibition) at 1uM": 11.6}
{"molecule": "Cc1ccc(-c2nc(CSCC(=O)NCCCN3CCOCC3)c(C)o2)cc1", "hERG current change (%, negative = inhibition) at 1uM": 14.1}
{"molecule": "Cc1ccccc1-c1cc(C(=O)NCc2cccs2)nn1CC1CC(c2cccc([N+](=O)[O-])c2)=NO1", "note": "(centres unmarked)", "hERG current change (%, negative = inhibition) at 1uM": 10.8}
{"molecule": "COc1cccc(CN(C(=O)Cc2c[nH]c3ccccc23)C(C(=O)NC2CCCCC2)c2ccc(C)o2)c1", "note": "(centres unmarked)", "hERG current change (%, negative = inhibition) at 1uM": 13.2}
{"molecule": "CCOc1ccc(OCC)c(NC(=O)CN(c2ccc(C)cc2)S(=O)(=O)c2c(C)noc2C)c1", "hERG current change (%, negative = inhibition) at 1uM": 3.61}
{"molecule": "O=C(C[n+]1cccc(C(=O)Nc2ccccc2)c1)c1ccc([N+](=O)[O-])cc1.[Br-]", "hERG current change (%, negative = inhibition) at 1uM": -61}
{"molecule": "Cc1cc2cc(CCNC(=O)CCc3ccccc3)c(=O)[nH]c2cc1C", "hERG current change (%, negative = inhibition) at 1uM": 6.15}
{"molecule": "Cc1cc(C)n(-c2ccc(C(=O)NCC(c3ccco3)N3CCCC3)cc2)n1", "note": "(centres unmarked)", "hERG current change (%, negative = inhibition) at 1uM": 6.49}
{"molecule": "O=C1CC(N2CCSCC2)C(=O)N1CCc1ccccc1", "note": "(centres unmarked)", "hERG current change (%, negative = inhibition) at 1uM": -2.17}
